Measured values published in the supplement of paper PMC8728848.
The other results are listed elsewhere or left out.

Tests used:
Test in all cases: glycan array binding signal (z-score within array); higher = stronger binding
Conditions in all cases: glycan notation: IUPAC condensed, linker removed
[1] = biological target: Neu5Ac(a2-3)Gal(b1-4)GlcNAc(b1-3)Gal
Summary of the method: (§1)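 From the Consortium for Functional Glycomics database, 3228 arrays were curated, keeping only those whose protein sequence was available. Binding is given as a within-array Z-score averaged across arrays sharing a protein sequence and across linkers. Negative Z-scores can be read as non-binding.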

[2] = biological target: Neu5Ac(a2-3)Gal(b1-4)GlcNAc(b1-3)Gal(b1-3)GlcNAc
Summary of the method: as §1

[3] = biological target: Neu5Ac(a2-3)Gal(b1-4)GlcNAc(b1-3)Gal(b1-4)GlcNAc
Summary of the method: as §1

[4] = biological target: Neu5Ac(a2-3)Gal(b1-4)GlcNAc(b1-3)Gal(b1-4)GlcNAc(b1-3)Gal(b1-4)GlcNAc
Summary of the method: as §1

[5] = biological target: Neu5Ac(a2-3)Gal(b1-4)GlcNAc(b1-3)Gal(b1-4)[Fuc(a1-3)]GlcNAc
Summary of the method: as §1

[6] = biological target: Neu5Ac(a2-3)Gal(b1-4)GlcNAc(b1-3)GalNAc
Summary of the method: as §1

[7] = biological target: Neu5Ac(a2-3)Gal(b1-4)GlcNAc(b1-6)[Gal(b1-3)]GalNAc
Summary of the method: as §1

[8] = biological target: Neu5Ac(a2-3)Gal(b1-4)GlcNAc(b1-6)[Neu5Ac(a2-3)Gal(b1-3)]GalNAc
Summary of the method: as §1

[9] = biological target: Neu5Ac(a2-3)Gal(b1-4)GlcNAc6S
Summary of the method: as §1

[10] = biological target: Neu5Ac(a2-3)Gal(b1-4)[Fuc(a1-3)]GlcNAc
Summary of the method: as §1

[11] = biological target: Neu5Ac(a2-3)Gal(b1-4)[Fuc(a1-3)]GlcNAc(b1-3)Gal
Summary of the method: as §1

[12] = biological target: Neu5Ac(a2-3)Gal(b1-4)[Fuc(a1-3)]GlcNAc(b1-3)Gal(b1-4)GlcNAc
Summary of the method: as §1

[13] = biological target: Neu5Ac(a2-3)Gal(b1-4)[Fuc(a1-3)]GlcNAc(b1-3)Gal(b1-4)[Fuc(a1-3)]GlcNAc(b1-3)Gal(b1-4)[Fuc(a1-3)]GlcNAc
Summary of the method: as §1

[14] = biological target: Neu5Ac(a2-3)Gal(b1-4)[Fuc(a1-3)]GlcNAc(b1-3)GalNAc
Summary of the method: as §1

[15] = biological target: Neu5Ac(a2-3)Gal(b1-4)[Fuc(a1-3)]GlcNAc(b1-6)[Gal(b1-3)]GalNAc
Summary of the method: as §1

[16] = biological target: Neu5Ac(a2-3)Gal(b1-4)[Fuc(a1-3)]GlcNAc6S
Summary of the method: as §1

[17] = biological target: Neu5Ac(a2-3)Gal6S(b1-4)GlcNAc
Summary of the method: as §1

[18] = biological target: Neu5Ac(a2-3)Gal6S(b1-4)[Fuc(a1-3)]GlcNAc
Summary of the method: as §1

Neu5Ac(a2-3)GalNAc = biological target: Neu5Ac(a2-3)GalNAc
Summary of the method: as §1

[19] = biological target: Neu5Ac(a2-3)GalNAc(b1-4)GlcNAc
Summary of the method: as §1

[20] = biological target: Neu5Ac(a2-3)[GalNAc(b1-4)]Gal(b1-4)Glc
Summary of the method: as §1

[21] = biological target: Neu5Ac(a2-3)[GalNAc(b1-4)]Gal(b1-4)GlcNAc
Summary of the method: as §1

[22] = biological target: Neu5Ac(a2-3)[GalNAc(b1-4)]Gal(b1-4)GlcNAc(b1-3)GalNAc
Summary of the method: as §1

[23] = biological target: Neu5Ac(a2-3)[Neu5Ac(a2-6)]GalNAc
Summary of the method: as §1

Neu5Ac(a2-6)Gal = biological target: Neu5Ac(a2-6)Gal
Summary of the method: as §1

[24] = biological target: Neu5Ac(a2-6)Gal(b1-3)GlcNAc(b1-3)[Gal(b1-4)GlcNAc(b1-6)]Gal(b1-4)Glc
Summary of the method: as §1

Neu5Ac(a2-6)Gal(b1-4)Glc = biological target: Neu5Ac(a2-6)Gal(b1-4)Glc
Summary of the method: as §1

[25] = biological target: Neu5Ac(a2-6)Gal(b1-4)GlcNAc
Summary of the method: as §1

[26] = biological target: Neu5Ac(a2-6)Gal(b1-4)GlcNAc(b1-2)Man(a1-3)Man(b1-4)GlcNAc(b1-4)GlcNAc
Summary of the method: as §1

[27] = biological target: Neu5Ac(a2-6)Gal(b1-4)GlcNAc(b1-2)Man(a1-3)[Gal(b1-4)GlcNAc(b1-2)Man(a1-6)]Man(b1-4)GlcNAc(b1-4)GlcNAc
Summary of the method: as §1

[28] = biological target: Neu5Ac(a2-6)Gal(b1-4)GlcNAc(b1-2)Man(a1-3)[GlcNAc(b1-2)Man(a1-6)]Man(b1-4)GlcNAc(b1-4)GlcNAc
Summary of the method: as §1

[29] = biological target: Neu5Ac(a2-6)Gal(b1-4)GlcNAc(b1-2)Man(a1-3)[GlcNAc(b1-2)Man(b1-4)GlcNAc(b1-2)Man(a1-6)]Man(b1-4)GlcNAc(b1-4)GlcNAc
Summary of the method: as §1

[30] = biological target: Neu5Ac(a2-6)Gal(b1-4)GlcNAc(b1-2)Man(a1-3)[Man(a1-6)]Man(b1-4)GlcNAc(b1-4)GlcNAc
Summary of the method: as §1

[31] = biological target: Neu5Ac(a2-6)Gal(b1-4)GlcNAc(b1-2)Man(a1-3)[Neu5Ac(a2-6)Gal(b1-4)GlcNAc(b1-2)Man(a1-6)]Man(b1-4)GlcNAc(b1-4)GlcNAc
Summary of the method: as §1

[32] = biological target: Neu5Ac(a2-6)Gal(b1-4)GlcNAc(b1-2)Man(a1-6)Man(b1-4)GlcNAc(b1-4)GlcNAc
Summary of the method: as §1

B1: CV-2L (Chromobacterium violaceum), Q7NX84 (protein)
chain: MAQQGVFTLPARINFGVTVLVNSAATQHVEIFVDNEPRAAFSGVGTGDNNLGTKVINSGSGNVRVQITANGRQSDLVSSQLVLANKLNLAVVGSEDGTDMDYNDSIVILNWPLG
glycan array binding signal (z-score) [1]: -0.251 | glycan array binding signal (z-score) [2]: -0.339 | glycan array binding signal (z-score) [3]: -0.323 | glycan array binding signal (z-score) [4]: -0.354 | glycan array binding signal (z-score) [5]: -0.359 | glycan array binding signal (z-score) [6]: -0.347 | glycan array binding signal (z-score) [7]: -0.336 | glycan array binding signal (z-score) [8]: -0.338 | glycan array binding signal (z-score) [9]: -0.326 | glycan array binding signal (z-score) [10]: -0.318 | glycan array binding signal (z-score) [11]: -0.337 | glycan array binding signal (z-score) [12]: -0.308 | glycan array binding signal (z-score) [13]: -0.301 | glycan array binding signal (z-score) [14]: -0.303 | glycan array binding signal (z-score) [15]: -0.335 | glycan array binding signal (z-score) [16]: -0.307 | glycan array binding signal (z-score) [17]: -0.331 | glycan array binding signal (z-score) [18]: -0.346 | glycan array binding signal (z-score) (Neu5Ac(a2-3)GalNAc): -0.336 | glycan array binding signal (z-score) [19]: -0.342 | glycan array binding signal (z-score) [20]: -0.329 | glycan array binding signal (z-score) [21]: -0.335 | glycan array binding signal (z-score) [22]: -0.357 | glycan array binding signal (z-score) [23]: -0.324 | glycan array binding signal (z-score) (Neu5Ac(a2-6)Gal): -0.343 | glycan array binding signal (z-score) [24]: -0.257 | glycan array binding signal (z-score) (Neu5Ac(a2-6)Gal(b1-4)Glc): -0.332 | glycan array binding signal (z-score) [25]: -0.347 | glycan array binding signal (z-score) [26]: -0.361 | glycan array binding signal (z-score) [27]: -0.353 | glycan array binding signal (z-score) [28]: -0.336 | glycan array binding signal (z-score) [29]: -0.323 | glycan array binding signal (z-score) [30]: -0.232 | glycan array binding signal (z-score) [31]: -0.336 | glycan array binding signal (z-score) [32]: -0.335
